Here are results for 12 compounds from PubChem BioAssay (NCATS).

Each structure is given as a SMILES string. The list shows a part of the results. Shown are side measurements of this screen, not its main read-out; they come without a call. For part of these data: Compounds called inactive in the main read-out are mostly missing here. The note in brackets gives the kind of curve behind each potency; many fits are weak.

Assay [1] is described as follows: qHTS drug screen for cell cycle checkpoint inhibitors in PARPi-resistant BRCA-mutant ovarian cancer cell lines. (AID 1963452). The conditions noted are these: PEO1/OlaR viability, CellTiter-Glo luminescence, 96 h. The gist of the method: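 PEO1, PEO4 and PEO1/OlaR ovarian cancer cells, 600 per well, exposed 96 h at 37C to a dilution series. Viability read by CellTiter-Glo luminescence, normalized to DMSO and empty wells; activity summarized as Z-AUC.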
(In general: In qHTS, concentration-response curves come from the screen itself.)

A short description of assay [2]: qHTS for identification of novel therapeutic agents for treatment of microphthalmiaassociated transcription factor (MiT) renal cell carcinoma (RCC) (AID 1963991).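 For z-score: curves scaled with 100% = DMSO viability and 0% = empty wells.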 The conditions noted are these: CellTiter-Glo, 48 h; for z-score: stronger effect = lower value. Summed up:
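UOK109/UOK124/UOK145 (TFE3 fusions, three partners); 500 cells/well; MIPE v4.0, 1912 cpds, 11 conc.; 48 h, 37 C; CellTiter-Glo, 15 min RT; lum. Norm.: DMSO 100%, empty 0%.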

[3] abbreviates: measured here: PEO1 parental viability.
Setting [4] is: TFE3-RCC UOK109 viability, measured here: UOK109 Z-AUC.
The mark [5] stands for this setting: TFE3-RCC viability, measured here: UOK124 Z-AUC.
Where [6] appears, read: TFE3-RCC viability, measured here: UOK124 cell viability.
Setting [7] is: TFE3-RCC viability, measured here: UOK145 Z-AUC.
Setting [8] is: TFE3-RCC viability, measured here: UOK145 cell viability.
Tags give direction and shape of the fitted curve.

As usually defined, the AC50 is the midpoint of the concentration-response curve, whichever way the signal moves. For the compound `CCC(C)SSc1ncc[nH]1` (centres undefined), the AC50 in assay [1] (setting [3]) is 24.5 µM [falling, single point]; in assay [1] (measured here: PEO4 viability), 21.9 µM [falling, single point]; in assay [2] (setting [6]), 23.5 µM [falling, single point]; in assay [2] (setting [8]), 37.2 µM [falling, single point]. Further, the z-score in assay [2] (setting [4]) was 0.457; in assay [2] (setting [5]) it was 0.151; in assay [2] (setting [7]) it was 0.208.
Regarding `O=C(NCCCNc1nc(Nc2cccc(NC(=O)N3CCCC3)c2)ncc1I)c1cccs1`, the AC50 in assay [1] (setting [3]) was 6.16 µM [falling, partial curve]; in assay [1] (measured here: PEO4 viability) it was 6.16 µM [falling, partial curve]; in assay [2] (setting [6]), 18.7 µM [falling, partial curve]; in assay [2] (setting [8]) it was 18.7 µM [falling, partial curve]. For the same compound, the results for the z-score in assay [2] (setting [4]), in assay [2] (setting [5]) and in assay [2] (setting [7]) were 0.0198, -0.931 and -0.409, respectively.
With `Cn1cnc(-c2cc3nccc(Oc4ccc(NC(=S)NC(=O)Cc5ccccc5)cc4F)c3s2)c1`, the AC50 was 21.9 µM [falling, single point] in assay [1] (setting [3]); 13.8 µM [falling, single point] in assay [1] (measured here: PEO4 viability); 37.2 µM [falling, single point] in assay [2] (setting [6]); 13.2 µM [falling, partial curve] in assay [2] (setting [8]). The z-score in assay [2] (setting [4]) was 0.201; in assay [2] (setting [5]), 0.202; in assay [2] (setting [7]) it was -1.38.
For the compound `c1ccc2c(CCNc3ccc(Nc4ccncc4)cc3)c[nH]c2c1`, the AC50 is 1.1 µM [falling, full curve] in assay [1] (setting [3]); 1.74 µM [falling, full curve] in assay [1] (measured here: PEO4 viability); 33.2 µM [falling, single point] in assay [2] (setting [6]); 20.9 µM [falling, partial curve] in assay [2] (setting [8]). In addition, the values for the z-score in assay [2] (setting [4]), in assay [2] (setting [5]) and in assay [2] (setting [7]) were -0.473, 0.0561 and -0.0695, respectively.
As for `COc1cccc2c1C(=O)c1c(O)c3c(c(O)c1C2=O)C[C@@](O)(C(=O)CO)C[C@@H]3O[C@H]1C[C@H](N)[C@@H](O)[C@H](C)O1`, the AC50 in assay [1] (setting [3]) is 0.245 µM [falling, full curve]; in assay [1] (measured here: PEO4 viability), 0.49 µM [falling, full curve]; in assay [2] (setting [6]), 0.418 µM [falling, full curve]; in assay [2] (setting [8]) it was 0.833 µM [falling, full curve]. Moreover, the z-score in assay [2] (setting [4]) is -0.77; in assay [2] (setting [5]), -0.736; in assay [2] (setting [7]), -0.498.
On to `Clc1ccc(C(c2ccc(Cl)cc2)n2cc[n+](CC(OCc3ccc(Cl)cc3Cl)c3ccc(Cl)cc3Cl)c2)cc1` (centres undefined), for which the AC50 was 5.49 µM [falling, partial curve] in assay [1] (setting [3]); 3.89 µM [falling, full curve] in assay [1] (measured here: PEO4 viability); 23.5 µM [falling, partial curve] in assay [2] (setting [6]); 33.2 µM [falling, single point] in assay [2] (setting [8]). Also, the values for the z-score in assay [2] (setting [4]), in assay [2] (setting [5]) and in assay [2] (setting [7]) were 0.376, -0.254 and 0.755, respectively.
As to `COc1cc(C)c(Sc2cnc(NC(=O)c3ccc(CNC(C)C(C)(C)C)cc3)s2)cc1C(=O)N1CCN(C(C)=O)CC1` (centres undefined), the AC50 is 13.8 µM [falling, partial curve] in assay [1] (setting [3]); 6.92 µM [falling, partial curve] in assay [1] (measured here: PEO4 viability); 14.8 µM [falling, partial curve] in assay [2] (setting [6]); 13.2 µM [falling, partial curve] in assay [2] (setting [8]). The z-score is -0.295 in assay [2] (setting [4]), -0.452 in assay [2] (setting [5]) and -0.966 in assay [2] (setting [7]).
On to `Cc1cccc(-c2[nH]c(C(C)(C)C)nc2-c2ccc3c(c2)OCO3)n1`, for which the AC50 was 11 µM [falling, partial curve, poor fit] in assay [1] (setting [3]); 13.8 µM [falling, partial curve, poor fit] in assay [1] (measured here: PEO4 viability); 9.35 µM [falling, full curve] in assay [2] (setting [6]); 14.8 µM [falling, partial curve] in assay [2] (setting [8]). Further, the z-score in assay [2] (setting [4]) came out at 0.663; in assay [2] (setting [5]) it was 1.48; in assay [2] (setting [7]), 0.202.
Turning to `COc1cc(CCc2cc(NC(=O)c3ccc(N4C[C@@H](C)N[C@@H](C)C4)cc3)n[nH]2)cc(OC)c1`, the AC50 in assay [1] (setting [3]) is 13.8 µM [falling, single point]; in assay [1] (measured here: PEO4 viability) it was 19.5 µM [falling, partial curve]; in assay [2] (setting [6]), 16.6 µM [falling, partial curve]; in assay [2] (setting [8]), 26.4 µM [falling, partial curve]. The z-score is 0.463 in assay [2] (setting [4]), -0.081 in assay [2] (setting [5]) and 0.393 in assay [2] (setting [7]).
In the case of `CCc1c2c(nc3ccc(OC(=O)N4CCC(N5CCCCC5)CC4)cc13)-c1cc3c(c(=O)n1C2)COC(=O)[C@]3(O)CC`, the AC50 in assay [1] (setting [3]) was 0.0174 µM [falling, full curve]; in assay [1] (measured here: PEO4 viability) it was 0.0616 µM [falling, full curve]; in assay [2] (setting [6]) it was 2.96 µM [falling, full curve]; in assay [2] (setting [8]), 1.32 µM [falling, full curve]. The results for the z-score in assay [2] (setting [4]), in assay [2] (setting [5]) and in assay [2] (setting [7]) were -0.399, -0.14 and -0.867, respectively.
As for `CCc1ccc(C(=O)Nc2cc(CN3CCN(C)CC3)cc(C(F)(F)F)c2)cc1C#Cc1cnc2ccnn2c1`, the AC50 in assay [1] (setting [3]) is 0.871 µM [falling, full curve]; in assay [1] (measured here: PEO4 viability) it was 1.95 µM [falling, partial curve]; in assay [2] (setting [6]) it was 10.5 µM [falling, full curve]; in assay [2] (setting [8]), 16.6 µM [falling, partial curve]. Further, the values for the z-score in assay [2] (setting [4]), in assay [2] (setting [5]) and in assay [2] (setting [7]) were 0.44, -0.287 and 0.116, respectively.
Consider `Cn1cncc1[C@@](N)(c1ccc(Cl)cc1)c1ccc2c(c1)c(-c1cccc(Cl)c1)cc(=O)n2C`, for which the AC50 in assay [1] (setting [3]) was 15.5 µM [falling, single point]; in assay [1] (measured here: PEO4 viability), 12.3 µM [falling, partial curve]; in assay [2] (setting [6]), 18.7 µM [falling, partial curve]; in assay [2] (setting [8]) it was 23.5 µM [falling, partial curve]. The values for the z-score in assay [2] (setting [4]), in assay [2] (setting [5]) and in assay [2] (setting [7]) were -0.401, -0.828 and -0.189, respectively.
